# Reference: article PMC12136788
# This is one part of the list.
# T1: UNK ZnF1-3 (human, UniProt Q9C0B0 31-174)
# T1 sequence: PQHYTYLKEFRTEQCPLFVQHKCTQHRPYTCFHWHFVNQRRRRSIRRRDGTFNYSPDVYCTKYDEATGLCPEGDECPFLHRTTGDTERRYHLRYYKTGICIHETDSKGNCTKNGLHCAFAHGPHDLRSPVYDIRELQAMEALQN
# B1: chr13:76104392:76104393:-_ENSG00000188243_ENST00000355801|hu_hu|motif|central (ssRNA)
# RNA: GGGAGUUCUACAGUCCGACGAUCAUACUUAAGAGAUCUGCAAGUGUCUGAGCUCACAGCCAUACCCAGUUUCCACUGAAAAUCGGCAAGCUGGUUGGUGACAUCGGACUUAGCAUCCAGCGGCGGCUCGCUGGACGCCUCCAUCAACAGAGGAUUGAGCAUCA
# B2: 80526068_80529710_987_CDS_ENSG00000141568_ENST00000335255|human|control|control (ssRNA)
# RNA: GGGAGUUCUACAGUCCGACGAUCAUUUUUAGUGAUGUGUGUAUAAAUCCCGUUCAGGGUGAGCUGUUUGUCGGGAGCCAUCGUAAUCGCCUGAACUAUCAGCUGCGCGUAGGAGUAAGGCGGCUUUGAAUCAUCCUUCGGGCUCAACAGAGGAUUGAGCAUCA
# B3: chr3:176767854:176767855:-_ENSG00000177565_ENST00000430069|hu_hu|hu_hu_hu_mus_False|18_28 (ssRNA)
# RNA: GGGAGUUCUACAGUCCGACGAUCGACAUCCUUGUUACUGGGCACGUCCUGCCCUCCUUCCCGUAUGCAGUGUCUAAGCACGAGCUGCGUAGGGCCACUCGUGCUGUUCUCACUAAGAUUCCAUAUUCUUGCCGUGGAGUCUCCCAACAGAGGAUUGAGCAUCA
# B4: chr4:76721835:76721836:+_ENSG00000138768_ENST00000264904|hu_mus|hu_hu_hu_mus_True|58_78 (ssRNA)
# RNA: GGGAGUUCUACAGUCCGACGAUCGUUUGGCUGGGGUUUCUGAGACGCUCUGGAAUAAACUCAUGUUUUGCUAAUAAUCCUAGUUUCCUCUAUGAAAUUCUCUUUGCCAAUCCUCUUCUCUAUUAGUUGCUUUAGUUUCUCUUUCAACAGAGGAUUGAGCAUCA
# B5: chr4:95690885:95690886:+_ENSMUSG00000028572_ENSMUST00000156910|mus_mus|mus_mus_mus_hu_False|18_58 (ssRNA)
# RNA: GGGAGUUCUACAGUCCGACGAUCUUUAGAAAAUGUUAAAUACCAUGCUAAAAUAUUUUCAAAGGCUUAUUUUAUUUUACUAAAAGACACAGGCAAGCAGACACUACAAGAAUAUAUAAAUACAAACCUCAACAAUAUAACUGUCAACAGAGGAUUGAGCAUCA
# B6: chr5:21408736:21408737:-_ENSMUSG00000042453_ENSMUST00000161356|mus_hu|mus_mus_mus_hu_False|48_48 (ssRNA)
# RNA: GGGAGUUCUACAGUCCGACGAUCGUUGACAGAGUUGUAGAUGGUGGCUUCAUGGAACUGGAAAGGGGAGCAGCCAAUGCUGUUAGAAGAGGAAGGUAGGCACUGGGUCUGUACGAGCUGCCAGGAAUCCGAUCUUGCAUCCUUCAACAGAGGAUUGAGCAUCA
# B7: chr11:86532819:86532820:-_ENSMUSG00000047126_ENSMUST00000103186|perfect_dup|motif|central (ssRNA)
# RNA: GGGAGUUCUACAGUCCGACGAUCCAUGGCUCUGAGGCAUUCUAGGGAAUCUUCAACUGAUAAGGACCCAAAGUAAUUCACGGACCACUCAGGGUUAAGAAGAUGGGUAUGAACAACUGCACGUUUUAUGUCAUAUAAAUCGGUCAACAGAGGAUUGAGCAUCA
# B8: 103228277_103235471_1382_CDS_ENSMUSG00000041781_ENSMUST00000047357|mouse|control|control (ssRNA)
# RNA: GGGAGUUCUACAGUCCGACGAUCGUCUGCCUCUUUCGACUGCUCCAGUUUCUUAGCAGCUUCUUUCUUGAGUUUUUCUUUUUCCACAUAUUCCUCAAGUUCUUUCCCUUCAAGCUUCACACGUUUCCUCAGCUCGAUUUCUGUCAACAGAGGAUUGAGCAUCA
# B9: 16701290_16701410_3608_CDS_ENSG00000145555_ENST00000513610|human|control|control (ssRNA)
# RNA: GGGAGUUCUACAGUCCGACGAUCGGACUCGCCGCUGGAGGAGUUGUGUAGGCUCCCGGAGUCCUGCACUGAUGGGGCGAGCAGCACCGUGCUGUCCGCACUGGGGCUGGUGGGCACCACCGUGUCGUUCAUGUAUGGGUCCUCCAACAGAGGAUUGAGCAUCA
# B10: chr1:163112212:163112213:-_ENSG00000143248_ENST00000313961|hu_hu|hu_hu_hu_mus_False|38_108 (ssRNA)
# RNA: GGGAGUUCUACAGUCCGACGAUCUUUAUUUAUCCAGAAGAGUGAGUUACAUACUAGGCAAAGUAUUGGAUACAAUAAUCAGGAAACAAACACUAUUUUUCUUGAAUUUAAAACUUUAUGAGCGAAGUGCUGGCACAGGACUUACAACAGAGGAUUGAGCAUCA
# B11: chr11:54532201:54532202:-_ENSMUSG00000052298_ENSMUST00000064104|mus_mus|FALSE|FALSE (ssRNA)
# RNA: GGGAGUUCUACAGUCCGACGAUCCAAUCAAUCAAAGGCAGUUAGAUAGUAAGCAAAGUGGACCGCAGGAUCCAGCUACCUAUACUCAGCAGGGAAGAGGAACAGAAUGGGACCUGAGCAAAGGCCUCUUACUAACCACAGAGUCAACAGAGGAUUGAGCAUCA
# B12: chr2:115890611:115890612:-_ENSMUSG00000027210_ENSMUST00000102538|mus_mus|motif|central (ssRNA)
# RNA: GGGAGUUCUACAGUCCGACGAUCCAAUAAACUCCUGGAUGUGUCGUAUAUUUAAUAUCCCAGUCCGGAUAAGAAAGUGAGCGGGGUUGAAGAGUCCUUUUUUUCCAAACCAAGGAGACUUCUCCCAAUUUUCCAAUGUUAUUUCAACAGAGGAUUGAGCAUCA
# B13: chr2:119839360:119839361:+_ENSMUSG00000033902_ENSMUST00000066058|mus_hu|FALSE|FALSE (ssRNA)
# RNA: GGGAGUUCUACAGUCCGACGAUCGCCAUCAGCACAGCCACAGAAGAUGUAGUCUUGGCUCACAGAGAUGCAGUGGGCCACUGUGGUCCUCAGCUCCACCCACUUGUCCAAAAGCCUUCGAUCACUGAACUCGCACAGCAGCCCCAACAGAGGAUUGAGCAUCA
# B14: chr9:139297273:139297274:-_ENSG00000165689_ENST00000371725|hu_mus|FALSE|FALSE (ssRNA)
# RNA: GGGAGUUCUACAGUCCGACGAUCGGUGGCAGGUAGAGCGUCUCAAGAGUCCACCUCAUCUUUAACUUCACUAAUUCUGUCGAUAGACUUGAGGAUUUCAGCAACAAGGUUCAGUGUGUCUGCCCCAGACACCAGCUGCUUUAUCAACAGAGGAUUGAGCAUCA
# B15: chr5:132424114:132424115:+_ENSG00000170606_ENST00000304858|hu_hu|FALSE|FALSE (ssRNA)
# RNA: GGGAGUUCUACAGUCCGACGAUCACCGAAAAAUUUGCUGAUCUUCUCUUUUACCGCAGGGAUUCGUGUAGCACCACCAACUAUCUCCACUGCAUAAAUAUCUUCUUUCUUUAACUUGGUUUGUUCCAAAACACUACGAAGUGGCAACAGAGGAUUGAGCAUCA
# B16: chr11:32953859:32953860:+_ENSG00000060749_ENST00000399302|hu_mus|FALSE|FALSE (ssRNA)
# RNA: GGGAGUUCUACAGUCCGACGAUCAUCUCGAACUGAACUACAGGAUAAAGACGACUGCCUGGAUGGUUCCUGAAAAUUACCAAUACUUGCACUUGAUAGGUAGCUAUGUAAGGGAUGCUGUGAACCAGUCAGUUGUGCCUGAAUCAACAGAGGAUUGAGCAUCA
# B17: chr5:43291141:43291142:-_ENSG00000112972_ENST00000433297|hu_hu|FALSE|FALSE (ssRNA)
# RNA: GGGAGUUCUACAGUCCGACGAUCGUCAUCCAGGCUCCAUGUCAGUCACAUAAAAAUUUACAUAACAUGUAAUCCUUUAAAAUUAUCCCCAGAUAUCCCAUUCCUCCAACUGUUCCCAUACCCCCACCCCAUGCCCACCCCACCCAACAGAGGAUUGAGCAUCA
# B18: chr2:160855017:160855018:-_ENSMUSG00000057133_ENSMUST00000039782|mus_hu|motif|central (ssRNA)
# RNA: GGGAGUUCUACAGUCCGACGAUCAUCCUUUUCGAGCUCUUCCAUUGUGGCCCAUUUACAAUGUAAGUAGGAAAAAUUUCGGUACUUAACGUAGAACAGCUCCAAGUCGAACGGAGGUUCUCCUGGGUGAACCUCCUGGACAGUCAACAGAGGAUUGAGCAUCA
# B19: chr3:179287964:179287965:+_ENSG00000136518_ENST00000429709|hu_hu|hu_hu_hu_mus_True|28_48 (ssRNA)
# RNA: GGGAGUUCUACAGUCCGACGAUCCUUGAGUGGUGAGAUGGCCUCCAUGUUCUCCCUGGGCACGCGGAGGGCAUUGGUGUCUAUGUAGUAGGUGGGACCGCCCUGCUUGCCUUUAUCACCAUCAAUCUCCAUCAUUGUACUUCCCAACAGAGGAUUGAGCAUCA
# B20: chrX:20248820:20248821:+_ENSMUSG00000001924_ENSMUST00000001989|mus_mus|mus_mus_mus_hu_True|8_78 (ssRNA)
# RNA: GGGAGUUCUACAGUCCGACGAUCGGCGAAGUCCGUCACCACAAAGUCAGGUUCUGCCAGUGAUGCUACCAAGGAUUUAAAGCUAAUCUUCUUAGGUACUUUGACCUGACUGACGAUGCCUCCACGGAUGUAGUCAGAGAAGUUCAACAGAGGAUUGAGCAUCA
# B21: chr5:122941739:122941740:-_ENSMUSG00000029467_ENSMUST00000031423|mus_mus|motif|central (ssRNA)
# RNA: GGGAGUUCUACAGUCCGACGAUCUCUUUCCUGCCACACACCCACGAUUGCAUUGGCUACCAAGAUAAGCAGAAUUACAAACGGCUCGGCAAAGGCUGUAAUCGUUUCUUCCCCUUCCUCGAACCAAGCCAAAACGAAAGAUAUCAACAGAGGAUUGAGCAUCA
# B22: chr5:61681977:61681978:+_ENSG00000068796_ENST00000381103|hu_mus|motif|central (ssRNA)
# RNA: GGGAGUUCUACAGUCCGACGAUCCACUGUCACAGACUUUAGUUCCGUUCAAUUGAUAUGGCACAUCCUGCAAAAUUAACGGGUCACACACAAAAAAAUGUCUCAAAUACAGUAAAAAUGUACACACAGUAAAGGUAAUUUACACAACAGAGGAUUGAGCAUCA
# Target: T1, UNK ZnF1-3
# Experiment: nsRBNS (natural sequence RNA bind-n-seq); RBNS binding buffer (assumed for nsRBNS): 25 mM Tris pH 7.5, 150 mM KCl, 3 mM MgCl2, 0.01% Triton X-100, 500 ug/ml BSA, 20 U/ml SUPERase-In, 4 C; UNK is unkempt and MSI1 is Musashi-1; names of the RNAs are library labels; protein concentration not given here; high values mean tight binding
row,Binder,binding signal [enrichment R]
1,B1,0.457
2,B2,1.05
3,B3,0.448
4,B4,0.443
5,B5,1.87
6,B6,1.68
7,B7,1.08
8,B8,0.166
9,B9,0.847
10,B10,2.13
11,B11,1.3
12,B12,0.778
13,B13,1.21
14,B14,1.43
15,B15,0.919
16,B16,0.822
17,B17,1.52
18,B18,0.589
19,B19,0.63
20,B20,1.02
21,B21,1.35
22,B22,1.34
